Assay results published in publication doi:10.1101/660837 (bioRxiv, 2019).

Target: Gαs (human, short splice variant) (human, UniProt P63092-2 1-380)
Test: cryo-EM structure

binding result: binds
B1: Human GCGR ([…]) with N-terminal FLAG and C-terminal octahistidine tag (receptor)
chain: not shown
